Reference: paper PMC4336329 (PLoS ONE, 2015)
Out of some 310,000 compounds screened, about 2,200 (0.71%) showed an effect of 50% or more. The effect is printed as a negative number. The list shows a part of the results.

biological target: human ether-à-go-go-related gene (hERG) potassium channel (human, UniProt Q12809); assay: primary screen, population patch clamp on CHO cells stably expressing hERG
Sequence (Q12809 whole entry, looked up): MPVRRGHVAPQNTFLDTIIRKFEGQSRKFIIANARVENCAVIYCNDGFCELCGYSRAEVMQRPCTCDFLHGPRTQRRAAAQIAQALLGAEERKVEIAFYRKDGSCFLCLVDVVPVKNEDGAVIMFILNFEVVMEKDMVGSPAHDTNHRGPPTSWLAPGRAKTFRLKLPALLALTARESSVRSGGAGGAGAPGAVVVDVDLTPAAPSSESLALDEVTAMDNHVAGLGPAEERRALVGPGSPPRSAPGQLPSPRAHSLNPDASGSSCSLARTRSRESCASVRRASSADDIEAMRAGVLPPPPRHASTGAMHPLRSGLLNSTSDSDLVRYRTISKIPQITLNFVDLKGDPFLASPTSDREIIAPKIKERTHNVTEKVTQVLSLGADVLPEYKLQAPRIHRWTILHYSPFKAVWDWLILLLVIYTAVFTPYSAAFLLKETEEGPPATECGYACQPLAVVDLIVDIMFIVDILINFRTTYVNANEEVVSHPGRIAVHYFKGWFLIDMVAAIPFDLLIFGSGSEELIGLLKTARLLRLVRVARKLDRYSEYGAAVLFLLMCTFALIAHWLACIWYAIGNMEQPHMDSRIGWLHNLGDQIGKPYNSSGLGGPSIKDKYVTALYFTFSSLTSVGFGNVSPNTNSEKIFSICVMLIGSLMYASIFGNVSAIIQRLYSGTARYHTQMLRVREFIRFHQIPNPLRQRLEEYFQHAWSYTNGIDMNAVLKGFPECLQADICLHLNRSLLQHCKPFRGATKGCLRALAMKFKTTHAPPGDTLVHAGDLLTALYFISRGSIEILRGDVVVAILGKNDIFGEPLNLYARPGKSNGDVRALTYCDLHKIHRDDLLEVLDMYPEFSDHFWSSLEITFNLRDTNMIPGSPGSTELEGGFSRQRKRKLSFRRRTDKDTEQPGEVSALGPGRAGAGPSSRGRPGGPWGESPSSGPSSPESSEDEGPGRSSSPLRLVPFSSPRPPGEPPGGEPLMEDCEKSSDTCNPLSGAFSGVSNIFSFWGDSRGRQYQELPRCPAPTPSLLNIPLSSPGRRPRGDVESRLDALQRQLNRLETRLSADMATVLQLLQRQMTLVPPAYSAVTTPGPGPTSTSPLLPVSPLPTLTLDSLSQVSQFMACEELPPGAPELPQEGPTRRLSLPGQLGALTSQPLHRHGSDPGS

SMILES	hERG current change (%, negative = inhibition) at 1uM
COc1ccc(C2CC2C(=O)c2ccccn2)cc1 (stereo not drawn)	10.5%
Cc1ccc(C)c(N2CCN(CCCNC(=O)Cn3c(=O)c4cccn4c4cccnc43)CC2)c1	-22.3%
CCSc1nnc(CNC(=O)C23CC4CC(CC(C4)C2)C3)n1Cc1ccccc1	11.2%
CC(=O)Nc1nc(-c2ccc(Cl)cc2)nc(C)c1C(C)=O	4.22%
COC(=O)c1cc(=O)n(Cc2ccco2)c(=Nc2ccc(F)cc2)s1	3.79%
O=C(c1cc2ccccc2o1)N1CCN(c2ccccn2)CC1	4.04%
O=C(COc1coc(CN2CCN(c3ccccc3)CC2)cc1=O)NC1CCCC1	4.28%
CCCn1nc(NC(=O)c2cccs2)c2cc3ccccc3nc21	-10.3%
COc1cccc(-c2nnn(CC(=O)N3CCC(C)CC3)n2)c1	19.4%
CCOC(=O)c1ccc(N2C(=O)CC(Sc3nnc(C)s3)C2=O)cc1 (stereo not drawn)	14.2%
COCc1[nH]nc2c1C(c1cc(OC)c(O)c(OC)c1)C(C#N)=C(N)O2 (stereo not drawn)	11%
O=C(NNS(=O)(=O)c1ccccc1)Nc1ccc(F)cc1	5.39%
O=C(OCc1nnc(-c2ccccc2)o1)c1ccc(Br)o1	6.57%
CC(NC(=O)NC1CCCCC1)C(c1cccs1)N1CCOCC1 (stereo not drawn)	14.3%
CC(C)c1cc(C(F)(F)F)n2nc(C(=O)Nc3ccc(-n4cnnn4)cc3)cc2n1	11.7%
Cc1ccc(Sc2c([N+](=O)[O-])ncn2C)cc1	8.06%
Cc1nc(Cl)c2oc3ccccc3c2n1	8.52%
O=C(CC1(O)C(=O)Nc2cc(Cl)cc(Cl)c21)c1ccccc1O (stereo not drawn)	6.29%
CCc1ccccc1NC(=O)CN(C)C(=O)c1cc(C2CC2)nn1-c1ccccc1	18.1%
C[C@]12CCC(=O)C=C1CC[C@@H]1[C@@H]2[C@@H](O)C[C@@]2(C)[C@H]1CC[C@]2(O)C(=O)COC(=O)CCC(=O)[O-].[Na+]	8.86%
COc1ccc(S(=O)(=O)N(C)CC(=O)NC2CCCCC2)cc1OC	9.34%
CCOC(=O)C1(CCCc2ccccc2)CCN(Cc2ccn[nH]2)CC1	-27.8%
CC(C)c1nc2ccccc2n1CCC(=O)O	4.92%

SMILES	hERG current change (%, negative = inhibition) at 1uM
COC(=O)C1=CN(c2ccc(F)c(F)c2)C=C(C(=O)OC)C1c1ccc([N+](=O)[O-])cc1	-5.26%
CCCN(CC(=O)Nc1ccccc1C)C(=O)C1CC(=O)N(Cc2ccccc2)C1 (stereo not drawn)	1.21%
CCNc1c(NS(=O)(=O)c2ccc(OC)cc2)c(=O)oc2ccccc12	-6.47%
CC(C)CC(=O)Nc1ccc2nn(-c3ccccc3)nc2c1	18.4%
CCC(Oc1ccc2c(=O)c(-c3ccccc3OC)coc2c1)C(=O)OCc1ccccc1 (stereo not drawn)	13%
FC(F)(F)c1nc(N2CCN(c3ccccc3)CC2)nc2c1CCCCC2	7.78%
Cc1ccc2nc(-c3ccc(NS(=O)(=O)c4ccc(F)c(F)c4)cc3)sc2c1	12.9%
CCOC(OCC)c1ccc(/C=C\c2nccc(N)n2)cc1	11.4%
CCOc1ccc(CN(C)C(=O)CNC(=O)c2ccccc2)cc1	13.3%
O=[N+]([O-])c1cccc(-c2nnn(C34CC5CC(CC(C5)C3)C4)n2)c1	-3.57%
COC(=O)C(NC(C)=O)(Nc1cc(C)ccn1)C(F)(F)F (stereo not drawn)	12.6%
CCN1CCN(c2cc(=O)n(Cc3ccc(F)cc3)c(=O)[nH]2)CC1	11.8%
O=C(NCc1ccccc1)C1=C[C@@H](c2ccccc2)C[C@@H](OCc2ccc(CO)cc2)O1	11.8%
Cc1ccc(C(=O)NC(C)C(c2cccs2)N2CCCC2)s1 (stereo not drawn)	15%
COc1ccccc1/C=N/NC(=O)c1ccc(Br)cc1	5.58%
CCOC(=O)c1ccc(NC(=O)NCc2ccc(OC)cc2)cc1	4.73%
CCOC(=O)C1=C2c3ccc4ccccc4c3CC(C)(C)N2C(=O)C1=O	1.39%
CC12CCC(C(=O)NCCN3CCCCC3)(CC1=O)C2(C)C (stereo not drawn)	-2.33%
COc1ccc(CC(=O)OCC(=O)Nc2cccnc2Cl)cc1OC	2.52%
N#Cc1c2n(c3c(=S)nc[nH]c13)CCCCC2	11.1%
N#C/C(=C\c1ccc(OCc2ccc(F)cc2)cc1)C(=O)Nc1cccc(C(=O)O)c1	-0.315%
COc1cc(OC)nc(Oc2ccccc2C(=O)Oc2cccc(C)c2)n1	13.7%
COc1cc2cc(C(c3nnnn3C3CCCC3)N(C)C3CCCCC3)c(=O)[nH]c2cc1OC (stereo not drawn)	-1.16%

SMILES	hERG current change (%, negative = inhibition) at 1uM
Cn1cnc([N+](=O)[O-])c1S(=O)(=O)c1cccc(Cl)c1	8.67%
Cc1cc(C)cc(N(CC(=O)N2CCOCC2)S(=O)(=O)c2ccccc2)c1	-25.8%
O=C(CSc1nnc(NC(=O)c2cc(Br)ccc2Cl)s1)NCC1CCCO1 (stereo not drawn)	8.35%
CC(C)C(=O)Nc1ccc(C(=O)CSc2nnc(C3CC3)n2C2CC2)cc1	11.7%
NC(=O)c1nsc(C(=O)N(c2ccc(F)cc2)C(C(=O)NC2CCCC2)c2ccncc2)c1N (stereo not drawn)	0.0133%
COC(=O)c1cc(-n2cccc2)ccc1N1CCOCC1	9.85%
Oc1ccc(/C=N/Nc2nccnc2Cl)cc1	7.53%
CC1Cc2ccccc2N1C(=O)CSc1nnc(-c2ccc(S(=O)(=O)N3CCOCC3)cc2)n1C (stereo not drawn)	7.38%
CCOC(=O)c1sc(NC(=O)CCN2CCC(C)CC2)c(C(=O)OCC)c1C	13.9%
CCN(CC)S(=O)(=O)c1ccc(OC)c(-n2cnnn2)c1	13.9%
CCn1c(O)c(C=NCc2ccccc2)sc1=S	10.6%
CSc1ccc(S(=O)(=O)Nc2ccc(OCC(=O)N3CCOCC3)cc2)cc1	18.9%
COc1ccccc1NC(=S)NC1CCCCCCCCCCC1	13.2%
CC(C)CC(=O)NN1CCCCC1	13%
CN1CCN(c2ccc([N+](=O)[O-])cc2C(=O)N2CCOCC2)CC1	10.1%
CCOc1c(C)cc(S(=O)(=O)NCc2cccnc2)c(C)c1C	10.8%
Cc1cccc(C)c1OCc1cc(C(=O)N2CCC(c3ccncc3)CC2)no1	-6.14%
CCc1ccc(S(=O)(=O)NCc2csc(C)n2)s1	6.47%
O=C(COC(=O)C1CC(=O)N(Cc2ccco2)C1)c1ccc(OC(=O)c2ccccc2)cc1 (stereo not drawn)	3.52%
COC(=O)c1c(NC(=O)COC(=O)CNC(=O)c2ccco2)sc(C)c1C	13%
Cc1ccc(Nc2c3c(nc4ccccc24)CCC3)cc1.Cl	-57.7%
C=CCc1cc(Cl)ccc1OCCCNC(C)C.O=C(O)C(=O)O	-7.92%
CC(C)(C)c1cc(CN(CCO)CCO)cc(C(C)(C)C)c1O	-1.48%

SMILES	hERG current change (%, negative = inhibition) at 1uM
O=C(NC(=S)N1CCCCCC1)c1ccccc1Cl	3%
Cc1nn(Cc2ccc(F)cc2)c2sc(C(=O)Nc3nccs3)cc12	12.8%
C/C=C(/C)C(=O)Nc1cccc(C2=NOC3(C2)C[C@H](C(N)=O)N(C(=O)COc2ccc(Cl)cc2)C3)c1 (stereo partly drawn)	6.7%
O=C(O)c1ccccc1NS(=O)(=O)c1cccc(C(F)(F)F)c1	3.23%
Cc1ccc(NC(=O)CCc2c(C)nn(-c3ccc(N4CCOCC4)nn3)c2C)c(C)c1	15.3%
CCOC(=O)CC(=O)COc1nc2cc3c(nc2o1)CCCC3	-0.38%
CCOc1ccc(NC(=O)/C=C/c2ccccc2)c([N+](=O)[O-])c1	7.61%
CCCN1C(=O)C(O)(C2COC(C)(C)CC2=O)c2ccccc21 (stereo not drawn)	6.61%
Cc1ccc(S(=O)(=O)Oc2ccc(/C=N/N=C3/NC(=O)C(CC(=O)O)S3)cc2)cc1[N+](=O)[O-] (stereo not drawn)	22.9%
Cc1c(Cl)cccc1-n1nnnc1-c1cccs1	2.84%
C=CCn1c(O)c(C(C)=NCCCN(C)C)c(=O)[nH]c1=O	10.3%
CCOC(=O)C1(Cc2cccc(Cl)c2)CCCN(C(=O)c2ccc(COC)s2)C1 (stereo not drawn)	-2.58%
Cc1nccn1Cc1cccc2ccccc12	11.4%
N#Cc1ccc(COC(=O)c2cnc(Cl)c(Cl)c2)cc1	13.9%
Cc1ccc(NC(=O)NCCCN2CCCC2=O)cc1	2.18%
Cc1ccc(NC(=O)CSCC(=O)Nc2cccc3ncccc23)cc1	4.18%
COc1ccccc1NC(=O)CSCc1ccc([N+](=O)[O-])cc1	1.99%
O=C(/C=C/NCC(=O)c1ccccc1)c1ccc(Br)cc1	15.8%
O=C(NNC(=O)C1CC=CCC1)c1ccccc1Br (stereo not drawn)	10.4%
CN(C)C(CNC(=O)c1ccc2[nH]c(=O)c(=O)[nH]c2c1)c1ccco1 (stereo not drawn)	0.262%
CC1Cc2ccccc2N1S(=O)(=O)c1cccc(C(=O)c2nccn2C)c1 (stereo not drawn)	6.7%
